SMILES strings stand for the structures. In all, about 110,000 compounds were measured (“z-score”: median about -0.1, highest 2% from about 2 on). Some of the results follow. Calls of active or inactive are those of the source.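 Rule for the calls: active = z-score in the third read window above 3 or below -3; inactive = the rest.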

For this experiment, the target named is Metabotropic glutamate receptor 8 (Rattus norvegicus) (UniProt P70579). In words: rat mGluR8 modulators via GIRK flux, primary screen, cell-based, thallium flux, HTS (AID 488969). The note with it: HEK293 rat mGluR8, GIRK (G protein-gated inwardly rectifying potassium channel) thallium flux, FluoZin2; at 10 µM; stronger effect = higher value; submaximal glutamate (EC20) added with thallium.
UniProt P70579, sequence (P70579 whole entry, looked up): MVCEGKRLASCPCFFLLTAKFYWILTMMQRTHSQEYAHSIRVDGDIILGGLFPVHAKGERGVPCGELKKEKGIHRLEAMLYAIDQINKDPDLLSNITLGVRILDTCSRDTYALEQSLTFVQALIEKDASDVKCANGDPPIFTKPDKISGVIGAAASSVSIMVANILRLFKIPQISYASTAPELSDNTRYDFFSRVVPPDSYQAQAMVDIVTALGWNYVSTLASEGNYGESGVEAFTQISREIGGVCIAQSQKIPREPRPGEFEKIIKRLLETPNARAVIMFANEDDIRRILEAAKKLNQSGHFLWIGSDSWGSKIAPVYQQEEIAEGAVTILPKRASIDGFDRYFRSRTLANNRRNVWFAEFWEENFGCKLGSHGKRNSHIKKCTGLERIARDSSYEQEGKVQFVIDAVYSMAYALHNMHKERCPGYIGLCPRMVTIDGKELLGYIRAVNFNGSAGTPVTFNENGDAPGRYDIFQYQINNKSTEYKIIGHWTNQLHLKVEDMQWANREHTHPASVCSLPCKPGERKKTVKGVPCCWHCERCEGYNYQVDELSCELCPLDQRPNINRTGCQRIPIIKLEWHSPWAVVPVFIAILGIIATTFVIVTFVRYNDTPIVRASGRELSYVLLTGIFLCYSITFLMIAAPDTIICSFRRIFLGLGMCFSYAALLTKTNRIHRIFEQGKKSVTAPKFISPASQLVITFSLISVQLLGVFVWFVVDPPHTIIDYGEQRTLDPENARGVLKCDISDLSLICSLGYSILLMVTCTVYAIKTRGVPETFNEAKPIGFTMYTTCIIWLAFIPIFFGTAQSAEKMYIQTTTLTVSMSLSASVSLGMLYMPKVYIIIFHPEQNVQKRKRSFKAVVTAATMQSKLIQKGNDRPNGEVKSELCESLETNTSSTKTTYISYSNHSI
Turning to `CC(NC(=O)C1CCCN1S(=O)(=O)c1cccc2cccnc12)c1ccccc1` (centres undefined), the z-score turned out to be 0.123.
On to `CSc1nnc(-c2ccncc2)n1CCCN1CCCC1=O`, for which the z-score was -0.726.
To `CCc1ccc(-c2cc(C(F)(F)F)n3nc(C(=O)Nc4cnn(Cc5ccccc5C)c4)cc3n2)s1` belongs -0.217.
Turning to `Cc1ccccc1NC1=NS(=O)(=O)c2ccccc21`, the z-score was found to be 0.174.
`CCOC(=O)C1=C(C)N=c2sc(=C(C)C)c(=O)n2C1c1ccc(N(C)C)cc1` (centres undefined) showed a z-score of 0.0897.
`COc1ccc(C)cc1S(=O)(=O)N(CC(=O)Nc1cccc([N+](=O)[O-])c1)c1ccc(C)cc1` gave a z-score of -0.677.
`CCOC(=O)c1oc2cc(OCC(N)=O)ccc2c(=O)c1-c1ccc(OC)c(OC)c1` returned a z-score of -0.565.
To `COC(=O)Nc1nnc(Cc2ccccc2)s1` belongs -0.412; to `CN(CC(=O)NCc1ccncc1)S(=O)(=O)c1ccc(F)cc1`, 0.309.
To `CC(=O)Oc1ccc(N(C(C)=O)S(=O)(=O)c2cccs2)c2ccccc12` belongs active: 4.9; to `COc1ccccc1N1CCN(C(c2ccccn2)c2nnnn2C2CCCCC2)CC1` (centres undefined), -0.468; to `COc1cccc(N(C(=O)Cn2nnc(-c3ccc(C)o3)n2)C(C(=O)NC(C)(C)C)c2cccs2)c1` (centres undefined), 0.439.
To `COc1ccc(/C=C/C(=O)NC(=S)NCCc2ccc(OC)c(OC)c2)cc1` belongs -0.107; to `CCOC(=O)Cn1c2[n+](c3ccccc31)CC(O)CS2` (centres undefined), -0.74; to `COc1cc(/C=C/C(=O)OCC(=O)Nc2cc(C(F)(F)F)ccc2N2CCOCC2)ccc1O`, -0.338.
`CCc1ccc(/C(C)=N/Nc2cc(Cl)nc(C)n2)cc1` had a z-score of 0.00666.
For `Cc1ccc(-n2c(=O)c(C#N)cc3c(=O)n4cccc(C)c4nc32)cc1`, the z-score is -0.24.
The value for `O=C(Oc1ccc(-c2cnc3ccccc3n2)cc1)c1ccc(Br)o1` was 0.266; that for `S=C1NC2=C(C(c3ccc(Br)cc3)N1)N1CCC2CC1` (centres undefined) was -1.
The value for `O=C(O)CCC(=O)Nc1ccc(Br)c(Cl)c1` was 0.0527; that for `Cc1ccc(NC(=O)CC(O)(C(F)(F)F)C(F)(F)F)c(Br)c1` was -0.368.
The molecule `CCOc1ccc(C(c2c(NC(=O)c3ccccc3)sc(C)c2C)N2CCN(CCO)CC2)cc1` (centres undefined) yielded a z-score of 0.101.
Molecule `COc1ccc(OC)c(S(=O)(=O)Nc2ccc(C)c(C)c2)c1` had a z-score of 0.85.
The molecule `CCC1(C)Cc2c(sc3[nH]c(=O)[nH]c(=O)c23)CS1` (centres undefined) displayed a z-score of -0.458.
For `CCN(CC)C(=S)SCC(=O)c1ccccc1`, the z-score was -0.161.
Regarding `Cc1ccc(S(=O)(=O)Nc2ccc(=O)n(Cc3ccc(Cl)c(Cl)c3)c2)cc1`, the z-score was -0.0721.
`CCCNS(=O)(=O)c1ccc(Oc2ncc(C(F)(F)F)cc2Cl)cc1`: the z-score was -0.2.
The molecule `COc1ccccc1S(=O)(=O)Cc1ccc(C(=O)N2CCOCC2)o1` registered a z-score of 0.828.
As for `CCC1(c2ccccc2)NC(=O)N(CC(=O)Nc2cccc(C#N)c2)C1=O` (centres undefined), the z-score is -0.319.
As for `O=c1cc(N2CCC(Cc3ccccc3)CC2)[nH]c(=O)n1C1CCCCC1`, the z-score was 0.171.
`COC(=O)C(C(=O)NCC1CCCO1)C1CCCCCC1` (centres undefined) registered a z-score of 0.131.
In the case of `Cc1cccc(N2C(=O)C3C4C=CC(C4)C3C2=O)c1` (centres undefined), the z-score is -0.78.
On to `COCCCn1c(SCc2ccc(OC)cc2)nc2cc(OC)c(OC)cc2c1=N`, for which the z-score is -0.293.
In the case of `CCCn1c(=O)n(C)c(=O)c2c(SCc3cc(C(C)=O)ccc3OCC)nc(C3CC3)nc21`, the z-score is -0.12.
To `Cc1cccc(/C(N)=N/OC(=O)CCc2ccccc2)c1` belongs -0.12.
Regarding `O=C(NCc1ccc(Cl)cc1Cl)C1CCN(S(=O)(=O)c2ccc3c(c2)OCCCO3)CC1`, the z-score is -0.505.
For the molecule `Cc1ccc(NC2=NCCC2)cc1Cl`, the z-score was -0.0067.
The value for `CCc1c(C)c(C#N)c2nc3ccccc3n2c1NCc1ccco1` was active: -3.28; that for `Cc1cccc(S(=O)(=O)Nc2ccc(C)c3c2OC(C)(C)C3)c1` was 0.191; that for `COC(=O)c1ccc(-c2nc3cc(Cl)c(N)cc3s2)cc1` was -0.0315.
`Fc1ccccc1CNc1ccc(Cl)cc1` returned a z-score of -0.159.
`COc1ccc(-c2nnc(NC(=O)c3cc(Cl)ccc3Cl)o2)cc1` had a z-score of 1.02.
To `COc1ccccc1N1C(=O)c2ccccc2NC1c1ccncc1` (centres undefined) belongs 0.101; to `O=C(Nc1ccccc1C(F)(F)F)c1cc(S(=O)(=O)N2CCOCC2)ccc1F`, -0.0485.
Consider `O=C(Nc1ccc(CN2CCOCC2)cc1)c1ccc(-c2cccc(Cl)c2)o1`, for which the z-score is 0.138.
In turn, `O=C(COC(=O)c1ccc2c(c1)OCCO2)NCCC1=CCCCC1` yielded a z-score of -0.393.
To `CCOc1ccc(C2CC(c3cccc(OC)c3)Nc3ncnn32)cc1` (centres undefined) belongs -0.715.
`CC(C)Oc1ccc(C(=O)Nc2cc(=O)n(C)c(=O)n2C)cc1` came in with a z-score of 0.193.
Molecule `COc1ccccc1-c1noc(CCC(=O)Nc2cccc(C)c2)n1` registered a z-score of -0.323.
In turn, `N#Cc1c(-c2ccccc2F)cc(C2CC2)nc1SCC(=O)c1cccs1` registered a z-score of -0.51.
`CCOC(=O)C1CN(S(=O)(=O)c2ccc(F)cc2)C1` returned a z-score of -0.587.
Molecule `Cc1cc(N2CCOCC2)nc(SCc2ccc(Cl)cc2Cl)n1` had a z-score of 0.475.
`CC1(C)Cc2noc(N)c2C(C)(C)N1OC(=O)c1ccccc1` displayed a z-score of 0.169.
Molecule `COc1ccccc1N(Cc1ccccc1)S(=O)(=O)c1cccc(C(=O)Nc2ccc(C(C)=O)cc2)c1` had a z-score of -0.284.
Turning to `CC(C)OC(=O)c1c2nc3ccccc3nc2n2c1[nH]c(=O)c1ccccc12`, the z-score is active: 16.9.
Molecule `CCN(CC)c1ccc(NC(=O)CN2C(=O)CC(C)(C)S(=O)(=O)c3ccccc32)c(C)c1` showed a z-score of -0.103.
For the molecule `CCn1c(=NC(=O)c2ccc(N3C(=O)CCC3=O)cc2)sc2c(OC)ccc(OC)c21`, the z-score is -0.536.
In turn, `O=C(CN1C(=O)C2(OCCO2)c2ccccc21)c1ccc(Cl)cc1` registered a z-score of -0.162.
As for `COc1cc(C(=O)Nc2ccc(N(C)C)cc2)cc(OC)c1OC`, the z-score was determined as 0.211.
`CCn1c(COc2cccc(OC)c2)nnc1SCC(=O)Nc1cccc(OC)c1` had a z-score of -1.16.
Turning to `CC1(C)CC(=O)C2=C(C1)Nc1[nH]c(=S)[nH]c(=O)c1C2c1ccccc1` (centres undefined), the z-score was -0.254.
The value for `O=C1C(C=NCc2cccnc2)=C(O)c2ccccc21` was 0.0333; that for `O=C(Nc1ccc(S(=O)(=O)Nc2ncccn2)cc1)c1cccnc1` was -0.236.
Consider `O=c1[nH]c(C(F)(F)F)nc2c1nnn2Cc1ccccc1F`, for which the z-score is -1.13.
`CCN(CC)CCCNc1cc2n(c(=O)n1)CCc1cc(OC)c(OC)cc1-2`: the z-score was -1.06.
Consider `O=C(O)CCCNS(=O)(=O)c1cccc2nsnc12`, for which the z-score is -0.542.
As for `Cc1cccc(/C=C2/SC(=O)N(Cc3ccccc3Cl)C2=O)n1`, the z-score is -0.00258.
The value for `CCCOc1c(Br)cc(/C=N/O)cc1OC` was -0.858; that for `COc1ccc(/C=C\C(=O)c2c(O)ccc3c(C)cc(=O)oc23)cc1OC` was -0.676.

Source of the values: PubChem BioAssay AID488969 (Vanderbilt High Throughput Screening Facility, 2010).
